Here are results for 57 compounds from the supplement of paper PMC9446081.

SMILES strings stand for the structures. Among all 39,000 compounds or so, about 220 (0.56%) showed activity. This is one part of the list.
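Also: static incubation at 37 °C against the wild-type strain, values averaged over two biological replicates.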

The experiment relates to Escherichia coli K-12 BW25113. Kind of experiment: relative growth (OD600 normalised to plate interquartile mean) (fraction); higher = less growth inhibition, active = 0.2 or less. As to conditions: 50 µM; LB; incubation time: overnight (16-24 h).
On to `C[C@@H]1CN([C@@H](C)CO)C(=O)CCCn2cc(nn2)CO[C@@H]1CN(C)S(=O)(=O)c1cn(C)cn1`, for which the relative growth was inactive: 0.851. As for `C[C@H]1CN([C@@H](C)CO)C(=O)c2cc(NS(=O)(=O)c3ccc(F)cc3)ccc2O[C@@H]1CN(C)S(=O)(=O)c1ccccc1`, the figure is inactive: 0.994; as for `Cc1ccc(S(=O)(=O)N(C)C[C@H]2Oc3ccc(NS(=O)(=O)c4cn(C)cn4)cc3C(=O)N([C@H](C)CO)C[C@H]2C)cc1`, inactive: 0.998; as for `C[C@H]1CCCCO[C@H](CN(C)C(=O)Nc2ccc(F)cc2)[C@@H](C)CN([C@@H](C)CO)C(=O)c2cc(NC(=O)Nc3ccc(F)cc3)ccc2O1`, inactive: 1.04. As for `COCC#Cc1ccc2c(c1)O[C@@H](CN(C)Cc1ccc3c(c1)OCO3)[C@H](C)CN([C@H](C)CO)S2(=O)=O`, the figure is inactive: 1.03; as for `CN1CCN(C(=O)C[C@@H]2CC[C@@H]3[C@H](COC[C@@H](O)CN3Cc3ccc4c(c3)OCO4)O2)CC1`, inactive: 0.998.

As to `Cc1ccc(S(=O)(=O)N(C)C[C@@H]2Oc3ncc(-c4ccncc4)cc3C(=O)N([C@H](C)CO)C[C@@H]2C)cc1`, the relative growth is inactive: 1. Regarding `C[C@H]1CN([C@@H](C)CO)C(=O)Cc2cc(NC(=O)C3CCCCC3)ccc2O[C@@H]1CN(C)S(=O)(=O)c1cn(C)cn1`, the relative growth was inactive: 1.05. As to `C[C@@H]1CN([C@@H](C)CO)C(=O)Cc2cc(NC(=O)Nc3ccc(C(F)(F)F)cc3)ccc2O[C@H]1CN(C)Cc1ccc(Cl)c(Cl)c1`, the relative growth is inactive: 1.02. Next, `O=c1nc(C(F)(F)F)[nH]c2nc[nH]c12`: inactive: 1.01; `C[C@H](CO)N1C[C@H](C)[C@@H](CN(C)Cc2cncnc2)Oc2cc(C#CC3CCCC3)ccc2S1(=O)=O`: inactive: 1.

As for `COc1ccc([Si](C)(C)[C@H]2[C@H](CCO)O[C@@]3(C(=O)N(Cc4ccc(N5C(=O)c6cccc7cccc5c67)cc4)c4ccccc43)[C@@H]2C)cc1`, the relative growth was inactive: 0.94.

Consider `C[C@@H]1CN([C@@H](C)CO)C(=O)c2cc(NC(=O)CCC(F)(F)F)ccc2O[C@@H](C)CCCCO[C@H]1CN(C)S(=O)(=O)c1ccc(F)cc1`, for which the relative growth was inactive: 1.01. As for `COc1ccc(-c2ccccc2)cc1NC(=O)c1ccc2nc(C)c(N(C)C(=O)CCc3ccccc3)n2c1`, the figure is inactive: 1.02; as for `C[C@@H]1CN([C@H](C)CO)C(=O)c2cc(NC(=O)C3CCCCC3)ccc2O[C@@H](C)CCCCO[C@@H]1CN(C)Cc1ccc(C(F)(F)F)cc1`, inactive: 0.972. Next, `Cc1ccccc1S(=O)(=O)N1[C@@H]2Cn3c(cccc3=O)[C@H]1[C@@H](C(=O)N1CCOCC1)[C@@H]2CO`: inactive: 0.951; `C[C@@H]1CN([C@@H](C)CO)C(=O)Cc2cc(NC(=O)Nc3ccc(F)cc3)ccc2O[C@H]1CN(C)Cc1ccc(Oc2ccccc2)cc1`: inactive: 1.01; `C[C@@H]1CN([C@H](C)CO)C(=O)c2cccc(NC(=O)Nc3cccc4ccccc34)c2O[C@@H]1CN(C)S(=O)(=O)c1ccc(F)cc1`: inactive: 1.01.

With `Cc1noc(C)c1NC(=O)Nc1ccc2c(c1)C(=O)N([C@H](C)CO)C[C@H](C)[C@@H](CN(C)Cc1ccncc1)OCCCC[C@H](C)O2`, the relative growth was inactive: 1.01.

Take `C[C@H](CO)N1C[C@H](C)[C@@H](CN(C)S(C)(=O)=O)Oc2ccc(NC(=O)CCC(F)(F)F)cc2CC1=O`: the relative growth is inactive: 0.981.

Consider `Cc1noc(C)c1NC(=O)Nc1ccc2c(c1)C(=O)N([C@@H](C)CO)C[C@@H](C)[C@H](CN(C)C(=O)Nc1c(C)noc1C)OCCCC[C@H](C)O2`, for which the relative growth was inactive: 1.02. In the case of `C[C@H](CO)N1C[C@H](C)[C@@H](CN(C)Cc2ccc(C(F)(F)F)cc2)Oc2c(NC(=O)C3CCCCC3)cccc2C1=O`, the relative growth was inactive: 0.965. Turning to `C[C@@H]1CCCCO[C@@H](CN(C)Cc2ccc(C(F)(F)F)cc2)[C@@H](C)CN([C@H](C)CO)C(=O)c2cc(NS(=O)(=O)c3ccc(F)cc3)ccc2O1`, the relative growth is inactive: 1.1. Next, `O=C(C[C@H]1CC[C@@H](NC(=O)Cc2ccccn2)[C@@H](CO)O1)NCCCN1CCOCC1`: inactive: 0.983; `C[C@@H]1CN([C@H](C)CO)S(=O)(=O)c2ccc(-c3ccc(F)cc3)cc2O[C@@H]1CN(C)S(C)(=O)=O`: inactive: 1.02. Next, `Cc1ccc(NC(=O)COc2ccc(S(=O)(=O)N3CCOCC3)cc2)cc1S(=O)(=O)N1CCCCCC1`: inactive: 1.01; `C[C@H]1CN([C@@H](C)CO)C(=O)c2cccc(NC(=O)c3ccncc3)c2O[C@@H]1CN(C)S(=O)(=O)c1ccc(F)cc1`: inactive: 1.

On to `COC(=O)[C@@H](O)c1ccccc1`, for which the relative growth is inactive: 0.997. As for `C[C@H]1CN([C@@H](C)CO)C(=O)c2cc(NC(=O)CCN3CCOCC3)ccc2O[C@@H]1CN(C)S(=O)(=O)c1ccccc1`, the figure is inactive: 1.01; as for `CCC(=O)N1C[C@]2(CN(C2)S(=O)(=O)C)c2c(n(c3cc(ccc23)OC)C)[C@@H]1CO`, inactive: 0.967; as for `C=C/C=C/[C@H]1C(=C)CN([C@H](Cc2ccc(-n3cc(C(=O)NO)nn3)cc2)C(=O)OC)[C@@H]1[C@H](O)Cc1ccccc1`, inactive: 1.02. On to `COc1ccc(S(=O)(=O)Nc2ccc3c(c2)C(=O)N([C@@H](C)CO)C[C@@H](C)[C@@H](CN(C)S(=O)(=O)c2cn(C)cn2)OCCCC[C@@H](C)O3)cc1`, for which the relative growth is inactive: 1.01. As for `C[C@@H]1CCCCO[C@@H](CN(C)C(=O)Nc2ccc(F)cc2)[C@H](C)CN([C@H](C)CO)C(=O)c2cc(NC(=O)CCCN(C)C)ccc2O1`, the figure is inactive: 1.02. Consider `C[C@@H]1CN([C@@H](C)CO)C(=O)c2ccccc2-c2ccccc2CO[C@@H]1CN(C)C(=O)Nc1ccc(-c2ccccc2)cc1`, for which the relative growth was inactive: 1.04. On to `C[C@H]1CN([C@@H](C)CO)C(=O)c2cc(NC(=O)c3ccncc3)ccc2O[C@H]1CN(C)S(=O)(=O)c1cn(C)cn1`, for which the relative growth is inactive: 0.996. Regarding `Cc1ccc(S(=O)(=O)Nc2ccc3c(c2)CC(=O)N([C@H](C)CO)C[C@H](C)[C@H](CN(C)S(=O)(=O)c2ccc(F)cc2)O3)cc1`, the relative growth was inactive: 1.02. Regarding `C[C@@H]1CCCCO[C@@H](CN(C)S(=O)(=O)c2ccccc2)[C@@H](C)CN([C@@H](C)CO)C(=O)c2cc(NS(C)(=O)=O)ccc2O1`, the relative growth is inactive: 1.01. For the compound `CC(C)CC#Cc1ccc2c(c1)O[C@@H](CN(C)S(=O)(=O)c1ccc(F)cc1)[C@H](C)CN([C@@H](C)CO)S2(=O)=O`, the relative growth was inactive: 1.03. As for `C[C@@H]1CN([C@H](C)CO)C(=O)c2cc(NC(=O)C3CCCCC3)ccc2O[C@@H](C)CCCCO[C@H]1CN(C)C(=O)Nc1ccccc1`, the figure is inactive: 0.993; as for `C[C@@H]1CN([C@H](C)CO)C(=O)c2cccc(NC(=O)Nc3ccc4c(c3)OCO4)c2O[C@H]1CN(C)Cc1ccc(C(=O)Nc2ccccc2N)cc1`, inactive: 1.02; as for `CC(C)NC(=O)Nc1ccc2c(c1)C(=O)N([C@@H](C)CO)C[C@H](C)[C@@H](CN(C)Cc1ccc(C(F)(F)F)cc1)OCCCC[C@H](C)O2`, inactive: 1.04. Next, `C[C@H]1CN([C@@H](C)CO)C(=O)Cc2cc(NC(=O)Nc3cccc4ccccc34)ccc2O[C@H]1CN(C)Cc1ccc(C(=O)O)cc1`: inactive: 1.02. Take `N=C(N)NCCC[C@@H](NC(=O)[C@@H](N)Cc1ccc(O)cc1)C(=O)O`: the relative growth is inactive: 0.971. Next, `COc1cccc(C)c1NC(=O)O[C@H]1[C@H](OC(=O)Nc2ccccc2-c2ccccc2)[C@H](OC(=O)Nc2ccccc2-c2ccccc2)[C@@H](OC)O[C@@H]1CO`: inactive: 1.04; `C[C@@H]1CCCCO[C@@H](CN(C)Cc2ccc(C(F)(F)F)cc2)[C@@H](C)CN([C@@H](C)CO)C(=O)c2cc(NC(=O)NC3CCCCC3)ccc2O1`: inactive: 1.01; `COCCC(=O)N1CCC2(CC1)COC2`: inactive: 0.998. As for `COCc1nc(C)c(CN)s1`, the figure is inactive: 0.99; as for `C[C@@H]1CN([C@H](C)CO)C(=O)c2cc(NS(=O)(=O)c3ccccc3)ccc2O[C@@H](C)CCCCO[C@@H]1CN(C)Cc1ccc(C(F)(F)F)cc1`, inactive: 1.01; as for `C[C@@H]1CN([C@H](C)CO)C(=O)c2cc(NC(=O)Nc3cccc4ccccc34)ccc2O[C@H]1CN(C)Cc1ccncc1`, inactive: 0.968. Next, `C[C@@H]1CN([C@H](C)CO)C(=O)CCCn2cc(nn2)CO[C@H]1CN(C)S(=O)(=O)c1ccc(-n2cccn2)cc1`: inactive: 0.999; `C[C@@H]1[C@@H]([Si](C)(C)F)[C@H](CCO)O[C@@]12C(=O)N(Cc1cccc(N3C(=O)c4cccc5cccc3c45)c1)c1ccccc12`: inactive: 1.01. In the case of `C[C@H]1CN([C@@H](C)CO)C(=O)c2cc(NC(=O)Cn3cnnn3)ccc2O[C@@H]1CN(C)C(=O)Nc1cccc2ccccc12`, the relative growth was inactive: 1. As for `COC(=O)[C@H](Cc1ccccc1)N1CC2=CCCC=C[C@H]2[C@@H]1[C@@H](O)CCn1cc(CCC(=O)NO)nn1`, the relative growth was inactive: 1. Next, `C[C@H](CO)N1C[C@H](C)[C@H](CN(C)C(=O)Nc2ccc3c(c2)OCO3)Oc2c(NS(C)(=O)=O)cccc2C1=O`: inactive: 1.01. As for `Cc1noc(C)c1NC(=O)N(C)C[C@@H]1Oc2ccc(NS(=O)(=O)c3c(C)noc3C)cc2C(=O)N([C@@H](C)CO)C[C@H]1C`, the figure is inactive: 0.988. As for `Cc1noc(C)c1S(=O)(=O)N(C)C[C@H]1OCCCC[C@@H](C)Oc2ccc(NC(=O)Nc3ccc(F)cc3)cc2C(=O)N([C@@H](C)CO)C[C@H]1C`, the figure is inactive: 1.01; as for `Cc1ccc(S(=O)(=O)N(C)C[C@@H]2OCCCC[C@H](C)Oc3ccc(NC(=O)Nc4c(C)noc4C)cc3C(=O)N([C@H](C)CO)C[C@H]2C)cc1`, inactive: 1.02.
